Experimental data reported in the supplement of paper PMC9135407.
Several values for one entry are separate records, joined by “and”; a condition that tells them apart may be missing. Equal values may be shown once. Where a name gives a salt, the structure may show the parent alone. The whole screen tested about 5,800 compounds, of which about 620 (11%) showed activity.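 The calls were made as follows: active = score above a cut-off or among the top three wells of a plate; in these data no inactive exceeds 0.85.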 Only a part is listed here, and it is no random draw.

Tested on: primary human hepatic stellate cells (donor 1)
Assay: scaled lipid accumulation score (0 = DMSO-like, 1 = nortriptyline-like); higher = stronger HSC inactivation (lipid re-accumulation), active = hit call of the paper
Details: 48 h
Protocol: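 Primary lipid accumulation screen in primary human hepatic stellate cell myofibroblasts (donor 1, passage 8) in 384-well plates. 100 nL of library compound was pin-transferred into 30 µL medium in duplicate, and cells were treated for 48 h. The 'Scaled' score combines distance from plate baseline, toxicity and reproducibility penalties, and is normalised to nortriptyline (positive) and DMSO (negative) controls on each plate. A hit is defined as scaled >0.85 or among the top 3 wells per plate.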

[1] = library stock concentration: 10 mM
[2] = library stock concentration: 6.4 mM
[3] = library stock concentration: 400 uM
[4] = library stock concentration: 2 mM
[5] = library stock concentration: 3.33 mM
[6] = library stock concentration: 1 mM

## COCCOc1cc2ncnc(Cl)c2cc1OCCOC
[1]
  scaled lipid accumulation score: inactive: ≤ 0

## CNCCCC12CCC(c3ccccc31)c1ccccc12.Cl [Maprotiline hydrochloride]
[2]
  scaled lipid accumulation score: active: 1.05
[1]
  scaled lipid accumulation score: active: 0.918 and active: 1.23

## c1ccc(COCCCc2c[nH]cn2)cc1 [Proxyfan Oxalate]
[1]
  scaled lipid accumulation score: inactive: ≤ 0

## CC[N+](CC)(CC)CC(=O)Nc1c(C)cccc1C [Lidocaine N-ethyl bromide quaternary salt]
[1]
  scaled lipid accumulation score: inactive: 0.159

## CC[N+](CC)(CC)CC(=O)Nc1c(C)cccc1C [QX 314 bromide]
[1]
  scaled lipid accumulation score: inactive: ≤ 0

## CC[N+](CC)(CC)CC(=O)Nc1c(C)cccc1C [QX 314 chloride]
[1]
  scaled lipid accumulation score: inactive: ≤ -0.001

## COc1cc(-c2ccc(=O)[nH]n2)ccc1OC(F)F
[1]
  scaled lipid accumulation score: inactive: ≤ 0

## COc1cc(-c2ccc(=O)[nH]n2)ccc1OC(F)F [Zardaverine]
  scaled lipid accumulation score: inactive: 0.489
Library stock concentration: 7.5 mM
  scaled lipid accumulation score: inactive: 0.206
[1]
  scaled lipid accumulation score: inactive: 0.387

## Cc1ccc([N+](=O)[O-])cc1S(=O)(=O)N(C)/N=C/c1cnc2ccc(Br)cn12
[3]
  scaled lipid accumulation score: inactive: 0.244
[4]
  scaled lipid accumulation score: inactive: 0.129
[5]
  scaled lipid accumulation score: inactive: 0.64
[1]
  scaled lipid accumulation score: inactive: 0.167 and inactive: ≤ -0.005

## COc1ccc2nc3n[nH]c(C)c3c(NCCOCCO)c2c1
Library stock concentration: 80 uM
  scaled lipid accumulation score: inactive: ≤ -0.001
[3]
  scaled lipid accumulation score: inactive: ≤ -0.001
[4]
  scaled lipid accumulation score: inactive: ≤ -0.001
[5]
  scaled lipid accumulation score: inactive: 0.203
[1]
  scaled lipid accumulation score: inactive: 0.021

## CCOC(=O)c1ccc(N)cc1 [Benzocaine]
  scaled lipid accumulation score: inactive: ≤ 0
[5]
  scaled lipid accumulation score: inactive: ≤ 0
[1]
  scaled lipid accumulation score: inactive: ≤ -0.001 and inactive: ≤ 0
Library stock concentration: 12.1 mM
  scaled lipid accumulation score: inactive: ≤ -0.001

## CCCCCCCCCCCCCCC(F)C(=O)O (stereo unspecified) [2-Fluoropalmitic Acid]
[6]
  scaled lipid accumulation score: inactive: ≤ 0

## CCCCCCCCCCCCCCC(F)C(=O)O (stereo unspecified) [2-Fluoropalmitic acid]
[6]
  scaled lipid accumulation score: inactive: ≤ -0.021

## CCCCCCCCCCCCc1ccc(S(=O)(=O)Nc2nncs2)cc1
[5]
  scaled lipid accumulation score: inactive: ≤ 0
[1]
  scaled lipid accumulation score: inactive: 0.218

## Cl.c1cc(OCCN2CCCCC2)cc(-c2n[nH]c3ccc(-c4nc[nH]n4)cc23)c1
[1]
  scaled lipid accumulation score: active: 1.28

## C=CCn1c(=O)c2c(nc(-c3ccc(S(=O)(=O)O)cc3)n2C)n(C)c1=O [1-Allyl-3,7-dimethyl-8-p-sulfophenylxanthine]
[1]
  scaled lipid accumulation score: inactive: 0.065

## C[C@]12CC[C@@H]3c4ccc(OS(=O)(=O)O)cc4CC[C@H]3[C@@H]1CCC2=O [Estropipate]
  scaled lipid accumulation score: inactive: ≤ 0

## C[C@]12CC[C@@H]3c4ccc(OS(=O)(=O)O)cc4CC[C@H]3[C@@H]1CCC2=O
[1]
  scaled lipid accumulation score: inactive: ≤ 0

## CCCCC[C@H](O)/C=C/[C@H]1[C@@H](O)CC(=O)[C@@H]1CCCCCCC(=O)O [11.beta.-Prostaglandin E1]
[6]
  scaled lipid accumulation score: inactive: ≤ 0

## COc1cc2c(CCNC(C)=O)c[nH]c2cc1Cl [6-Chloromelatonin]
[1]
  scaled lipid accumulation score: inactive: ≤ 0 and inactive: 0.053

## Cn1cccc1/C=C1\C(=O)NC(=O)c2ccccc21
[1]
  scaled lipid accumulation score: inactive: 0.017

## COc1cccc(OC)c1C(=O)N[C@@H]1C(=O)N2[C@@H]1SC(C)(C)[C@@H]2C(=O)O [Methicillin sodium]
Library stock concentration: 5 mM
  scaled lipid accumulation score: inactive: ≤ -0.001
[1]
  scaled lipid accumulation score: inactive: ≤ 0

## Cc1ccc(S(=O)(=O)NC(=O)NN2CCCCCC2)cc1 [Tolazamide]
  scaled lipid accumulation score: inactive: 0.062
[2]
  scaled lipid accumulation score: inactive: ≤ -0.006 and inactive: ≤ 0
[1]
  scaled lipid accumulation score: inactive: ≤ 0
Library stock concentration: 16.1 mM
  scaled lipid accumulation score: inactive: 0.058

## Cc1ccc(S(=O)(=O)NC(=O)NN2CCCCCC2)cc1
[1]
  scaled lipid accumulation score: inactive: ≤ 0

## CN(C)c1ccc(C(=O)NCCCCCC(=O)NO)cc1
[6]
  scaled lipid accumulation score: inactive: ≤ 0

## CC(Cc1ccc(O)c(O)c1)(NN)C(=O)O [(S)-(-)-Carbidopa]
[1]
  scaled lipid accumulation score: inactive: ≤ 0

## CC(Cc1ccc(O)c(O)c1)(NN)C(=O)O (stereo not drawn) [S-(-)-Carbidopa]
[1]
  scaled lipid accumulation score: inactive: 0.098

## CCCCC[C@](C)(O)/C=C/[C@H]1[C@H](O)CC(=O)[C@@H]1CCCCCCC(=O)O [15(S)-15-methyl Prostaglandin E1]
[6]
  scaled lipid accumulation score: inactive: 0.012

## CCCn1c(=O)[nH]c2nc(-c3ccc(S(=O)(=O)O)cc3)[nH]c2c1=O
[1]
  scaled lipid accumulation score: inactive: 0.062

## Cc1ccsc1/C=C/C1=NCCCN1C [Morantel tartrate]
  scaled lipid accumulation score: inactive: 0.022

## Cc1ccsc1/C=C/C1=NCCCN1C [Morantel citrate]
Library stock concentration: 4.8 mM
  scaled lipid accumulation score: inactive: ≤ 0
[1]
  scaled lipid accumulation score: inactive: 0.048

## CCCCCCCCCCCCCCCCOP(=O)([O-])OCC[N+](C)(C)C [Miltefosine]
[6]
  scaled lipid accumulation score: inactive: ≤ 0
Library stock concentration: 4.9 mM
  scaled lipid accumulation score: inactive: ≤ -0.006
[1]
  scaled lipid accumulation score: inactive: 0.007

## CN(C)c1ccc(O)c2c1C[C@H]1C[C@H]3[C@H](N(C)C)C(O)=C(C(N)=O)C(=O)[C@@]3(O)C(O)=C1C2=O
[1]
  scaled lipid accumulation score: inactive: ≤ 0

## CN(C)c1ccc(O)c2c1C[C@H]1C[C@H]3[C@H](N(C)C)C(O)=C(C(N)=O)C(=O)[C@@]3(O)C(O)=C1C2=O [Minocycline hydrochloride]
  scaled lipid accumulation score: inactive: ≤ 0
Library stock concentration: 4 mM
  scaled lipid accumulation score: inactive: ≤ -0.001
[1]
  scaled lipid accumulation score: inactive: ≤ -0.055

## CN(C)c1ccc(O)c2c1C[C@H]1C[C@H]3[C@H](N(C)C)C(O)=C(C(N)=O)C(=O)[C@@]3(O)C(O)=C1C2=O [Minocycline HCl]
Library stock concentration: 4.4 mM
  scaled lipid accumulation score: inactive: ≤ 0

## CCCCCCCCCC(=O)NC(CN1CCOCC1)[C@H](O)c1ccccc1 (stereo partly specified)
[1]
  scaled lipid accumulation score: inactive: ≤ 0

## COc1cc(C(C)=O)ccc1O [Apocynin]
[5]
  scaled lipid accumulation score: inactive: ≤ 0
[1]
  scaled lipid accumulation score: inactive: 0.031

## CCN1CCc2nc(N)oc2CC1 [B-HT 933 dihydrochloride]
[1]
  scaled lipid accumulation score: inactive: 0.188

## C[N+](C)(C)CCOC(=O)CCC(=O)OCC[N+](C)(C)C [Succinylcholine]
Library stock concentration: 6.9 mM
  scaled lipid accumulation score: inactive: ≤ 0

## C[N+](C)(C)CCOC(=O)CCC(=O)OCC[N+](C)(C)C [Succinylcholine chloride]
[1]
  scaled lipid accumulation score: inactive: ≤ 0

## O=C(CCCCCCC(=O)Nc1ccc([C@H]2O[C@@H](CSc3nc(-c4ccccc4)c(-c4ccccc4)o3)C[C@@H](c3ccc(CO)cc3)O2)cc1)NO [Tubacin]
[5]
  scaled lipid accumulation score: inactive: ≤ 0
[1]
  scaled lipid accumulation score: inactive: ≤ 0

## Nc1nc(NC2CC2)c2ncn([C@H]3C=C[C@@H](CO)C3)c2n1
[1]
  scaled lipid accumulation score: inactive: ≤ 0

## Nc1cc(F)ccc1NC(=O)/C=C/c1cnn(C/C=C/c2ccccc2)c1
[5]
  scaled lipid accumulation score: inactive: 0.048
[1]
  scaled lipid accumulation score: inactive: 0.024

## CCCC[C@@H](C=O)NC(=O)[C@H](CC(C)C)NC(=O)[C@H](CC(C)C)NC(C)=O
Library stock concentration: 13 mM
  scaled lipid accumulation score: inactive: 0.811

## CC#CCC(C)C(=O)/C=C/[C@@H]1[C@H]2C/C(=C/CCCC(=O)O)C[C@H]2C[C@H]1O (stereo partly specified) [15-keto Iloprost]
[6]
  scaled lipid accumulation score: inactive: ≤ 0

## CCOc1ccc2nc3cc(N)ccc3c(N)c2c1
[1]
  scaled lipid accumulation score: inactive: 0.362

## CCOc1ccc2nc3cc(N)ccc3c(N)c2c1 [Ethacridine lactate monohydrate]
[5]
  scaled lipid accumulation score: inactive: ≤ 0
[1]
  scaled lipid accumulation score: inactive: 0.493

## CCN(CC)CCNc1ccc(CO)c2sc3ccccc3c(=O)c12 [Hycanthone]
  scaled lipid accumulation score: inactive: 0.425
[1]
  scaled lipid accumulation score: inactive: 0.449

## O=C(COc1ccc(Cl)cc1)N1CCN(Cc2ccc3c(c2)OCO3)CC1 [Fipexide hydrochloride]
  scaled lipid accumulation score: inactive: ≤ 0
[1]
  scaled lipid accumulation score: inactive: ≤ -0.009

## CNC(C)CCC=C(C)C (stereo unspecified) [Isometheptene mucate]
  scaled lipid accumulation score: inactive: ≤ 0

## CN(Cc1cnc2nc(N)nc(N)c2n1)c1ccc(C(=O)N[C@@H](CCC(=O)O)C(=O)O)cc1 (racemic) [Amethopterin (R,S)]
  scaled lipid accumulation score: inactive: ≤ 0

## CN(Cc1cnc2nc(N)nc(N)c2n1)c1ccc(C(=O)N[C@@H](CCC(=O)O)C(=O)O)cc1 [Methotrexate]
  scaled lipid accumulation score: inactive: ≤ 0
[5]
  scaled lipid accumulation score: inactive: ≤ 0
[1]
  scaled lipid accumulation score: inactive: ≤ 0
Library stock concentration: 11 mM
  scaled lipid accumulation score: inactive: ≤ -0.012

## CN(Cc1cnc2nc(N)nc(N)c2n1)c1ccc(C(=O)N[C@@H](CCC(=O)O)C(=O)O)cc1
[1]
  scaled lipid accumulation score: inactive: ≤ 0

## CN(Cc1cnc2nc(N)nc(N)c2n1)c1ccc(C(=O)N[C@@H](CCC(=O)O)C(=O)O)cc1 [Methotrexate hydrate]
[1]
  scaled lipid accumulation score: inactive: ≤ 0

## Cc1ccc2c(=O)c3ccccc3n(CCCN)c2c1C
[1]
  scaled lipid accumulation score: inactive: 0.501

## COc1ccccc1N1CCN(CCCCNC(=O)c2ccc3ccccc3c2)CC1
  scaled lipid accumulation score: inactive: 0.307

## CCC1NC(=O)c2cc(S(N)(=O)=O)c(Cl)cc2N1 (stereo unspecified) [Quinethazone]
  scaled lipid accumulation score: inactive: 0.017

## NC(=O)c1ccc[n+]([C@@H]2O[C@H](COP(=O)([O-])OP(=O)(O)OC[C@H]3O[C@@H](n4cnc5c(N)ncnc54)[C@H](OP(=O)(O)O)[C@@H]3O)[C@@H](O)[C@H]2O)c1 [Sodium beta-nicotinamide adenine dinucleotide phosphate]
[1]
  scaled lipid accumulation score: inactive: ≤ -0.027

## CC(O)(P(=O)(O)O)P(=O)(O)O [Etidronic acid, disodium salt]
  scaled lipid accumulation score: inactive: ≤ 0

## CC(O)(P(=O)(O)O)P(=O)(O)O [Etidronate disodium]
Library stock concentration: 8 mM
  scaled lipid accumulation score: inactive: ≤ 0

## Cc1cnc(C(=O)NCCc2ccc(S(=O)(=O)NC(=O)NC3CCCCC3)cc2)cn1 [Glipizide]
  scaled lipid accumulation score: inactive: 0.161
[5]
  scaled lipid accumulation score: inactive: ≤ 0
Library stock concentration: 4.5 mM
  scaled lipid accumulation score: inactive: ≤ -0.006 and inactive: ≤ 0
[1]
  scaled lipid accumulation score: inactive: ≤ 0 and inactive: 0.167

## Cc1cnc(C(=O)NCCc2ccc(S(=O)(=O)NC(=O)NC3CCCCC3)cc2)cn1
[1]
  scaled lipid accumulation score: inactive: ≤ 0

## Cc1cc(-c2ncc(CC(=O)Nc3ccc(-c4cnccn4)cn3)cc2C)ccn1
[5]
  scaled lipid accumulation score: inactive: ≤ -0.009
[1]
  scaled lipid accumulation score: inactive: 0.036

## CC(C)NC[C@H](O)COc1cccc2[nH]ccc12 [S(-)-Pindolol]
[1]
  scaled lipid accumulation score: inactive: ≤ -0.07

## CC(C)NC[C@H](O)COc1cccc2[nH]ccc12 [(S)-(-)-Pindolol]
[1]
  scaled lipid accumulation score: inactive: 0.001
